Assay results from publication PMC9911399, “Two distinct binding modes provide the RNA-binding protein RbFox with extraordinary sequence specificity”.
Residue numbers refer to the chain shown, from its start. This is one part of the list.

T1: RBFOX1 RRM (Homo sapiens, UniProt Q9NWB1 109-208)
T1 sequence: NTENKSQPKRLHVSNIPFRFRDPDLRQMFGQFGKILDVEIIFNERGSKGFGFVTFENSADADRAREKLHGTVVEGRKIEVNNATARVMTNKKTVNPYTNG

B1: ACCCCAC (DNA:RNA)
RNA: GGGAGACCGGAAUUCAGAUUGUCCACCCCACUUAAAUCCCGUCGUAGCCACCA
DNA 1: CAATCTGAATTCCGGTCTCCC
DNA 2: TGGTGGCTACGACGGGATT
B2: UGGCACC (DNA:RNA)
RNA: B1 RNA with A25U, C26G, C27G, C29A, A30C
DNA 1: CAATCTGAATTCCGGTCTCCC
DNA 2: TGGTGGCTACGACGGGATT
B3: UAUGAUA (DNA:RNA)
RNA: GGGAGACCGGAAUUCAGAUUGUCCUAUGAUAUUAAAUCCCGUCGUAGCCACCA
DNA 1: CAATCTGAATTCCGGTCTCCC
DNA 2: TGGTGGCTACGACGGGATT
B4: AUGGUCC (DNA:RNA)
RNA: B1 RNA with C26U, C27G, C28G, C29U, A30C
DNA 1: CAATCTGAATTCCGGTCTCCC
DNA 2: TGGTGGCTACGACGGGATT
B5: GCGCCCU (DNA:RNA)
RNA: B1 RNA with A25G, C27G, A30C, C31U
DNA 1: CAATCTGAATTCCGGTCTCCC
DNA 2: TGGTGGCTACGACGGGATT
B6: UCAUGUU (DNA:RNA)
RNA: B3 RNA with A26C, U27A, G28U, A29G, A31U
DNA 1: CAATCTGAATTCCGGTCTCCC
DNA 2: TGGTGGCTACGACGGGATT
B7: GGCAGAG (DNA:RNA)
RNA: B1 RNA with A25G, C26G, C28A, C29G, C31G
DNA 1: CAATCTGAATTCCGGTCTCCC
DNA 2: TGGTGGCTACGACGGGATT
B8: CUCAAGU (DNA:RNA)
RNA: B1 RNA with A25C, C26U, C28A, C29A, A30G, C31U
DNA 1: CAATCTGAATTCCGGTCTCCC
DNA 2: TGGTGGCTACGACGGGATT
B9: UAAGCCU (DNA:RNA)
RNA: B3 RNA with U27A, A29C, U30C, A31U
DNA 1: CAATCTGAATTCCGGTCTCCC
DNA 2: TGGTGGCTACGACGGGATT
B10: CUAGAGG (DNA:RNA)
RNA: B3 RNA with U25C, A26U, U27A, U30G, A31G
DNA 1: CAATCTGAATTCCGGTCTCCC
DNA 2: TGGTGGCTACGACGGGATT
B11: CGGAAGC (DNA:RNA)
RNA: B1 RNA with A25C, C26G, C27G, C28A, C29A, A30G
DNA 1: CAATCTGAATTCCGGTCTCCC
DNA 2: TGGTGGCTACGACGGGATT
B12: ACUACAU (DNA:RNA)
RNA: B1 RNA with C27U, C28A, C31U
DNA 1: CAATCTGAATTCCGGTCTCCC
DNA 2: TGGTGGCTACGACGGGATT
B13: AGCACUU (DNA:RNA)
RNA: B1 RNA with C26G, C28A, A30U, C31U
DNA 1: CAATCTGAATTCCGGTCTCCC
DNA 2: TGGTGGCTACGACGGGATT
B14: AGUAGUA (DNA:RNA)
RNA: B3 RNA with U25A, A26G, G28A, A29G
DNA 1: CAATCTGAATTCCGGTCTCCC
DNA 2: TGGTGGCTACGACGGGATT
B15: GAACAGU (DNA:RNA)
RNA: B3 RNA with U25G, U27A, G28C, U30G, A31U
DNA 1: CAATCTGAATTCCGGTCTCCC
DNA 2: TGGTGGCTACGACGGGATT
B16: ACAGAAG (DNA:RNA)
RNA: B1 RNA with C27A, C28G, C29A, C31G
DNA 1: CAATCTGAATTCCGGTCTCCC
DNA 2: TGGTGGCTACGACGGGATT
B17: CUUACGA (DNA:RNA)
RNA: B3 RNA with U25C, A26U, G28A, A29C, U30G
DNA 1: CAATCTGAATTCCGGTCTCCC
DNA 2: TGGTGGCTACGACGGGATT
B18: CGGCAUG (DNA:RNA)
RNA: B3 RNA with U25C, A26G, U27G, G28C, A31G
DNA 1: CAATCTGAATTCCGGTCTCCC
DNA 2: TGGTGGCTACGACGGGATT
B19: UCGAUAG (DNA:RNA)
RNA: B1 RNA with A25U, C27G, C28A, C29U, C31G
DNA 1: CAATCTGAATTCCGGTCTCCC
DNA 2: TGGTGGCTACGACGGGATT
B20: GUGUCUA (DNA:RNA)
RNA: B3 RNA with U25G, A26U, U27G, G28U, A29C
DNA 1: CAATCTGAATTCCGGTCTCCC
DNA 2: TGGTGGCTACGACGGGATT

What follows are binders tested against T1, RBFOX1 RRM (assay: EMSA; HiTS-Eq, 1 nM pool, 10 min; buffer printed only for the single-RNA assays: 10 mM Tris pH 7.5, 150 mM NaCl, 3.4 mM EDTA, 0.001% NP-40, 30 C). Conditions: tags: His6 N-terminal (pET28a); label: 5' 32P.
Outline: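 These values rest on relative association constants, computed from read-count changes of each RNA species versus the control reaction and normalised to the cognate motif. Reads came from free RNA recovered by 8% native PAGE after purified RbFox RRM (wild type or mutant) at increasing concentrations was equilibrated for 10 min in 50 µL with 1 nM of a 5′-radiolabelled pool with 7 randomized nucleotides and DNA-annealed flanks.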

| Binder | binding signal |
| --- | --- |
| B1 | 0.0014 KA relative to UGCAUGU |
| B2 | 0.0134 KA relative to UGCAUGU |
| B3 | 0.0117 KA relative to UGCAUGU |
| B4 | 0.0104 KA relative to UGCAUGU |
| B5 | 0.0107 KA relative to UGCAUGU |
| B6 | 0.0106 KA relative to UGCAUGU |
| B7 | 0.0178 KA relative to UGCAUGU |
| B8 | 0.00359 KA relative to UGCAUGU |
| B9 | 0.00724 KA relative to UGCAUGU |
| B10 | 0.00494 KA relative to UGCAUGU |
| B11 | 0.0209 KA relative to UGCAUGU |
| B12 | 0.000769 KA relative to UGCAUGU |
| B13 | 0.00435 KA relative to UGCAUGU |
| B14 | 0.00651 KA relative to UGCAUGU |
| B15 | 0.0106 KA relative to UGCAUGU |
| B16 | 0.00619 KA relative to UGCAUGU |
| B17 | 0.00902 KA relative to UGCAUGU |
| B18 | 0.573 KA relative to UGCAUGU |
| B19 | 0.0169 KA relative to UGCAUGU |
| B20 | 0.0128 KA relative to UGCAUGU |
